According to patent publication US10730895B2, “Carbidopa prodrug” (AbbVie Inc., priority 2014, dated 2020):

Key:
[1] = In vitro bioconversion study, human liver microsomes; type: in vitro ADME; settings: human liver microsomes 1 mg/mL
[2] = Solubility study in water by visual assessment; type: physicochemical
Experimental: The L-dopa phosphate prodrugs and the carbidopa phosphate prodrugs were evaluated in a solubility study. The solubility values of the phosphate prodrugs in water under ambient conditions were determined by visual assessment. Table 13-A reports the results of the study, including the measured values for L-dopa and carbidopa.

[3] = In vitro bioconversion study, liver S9 fraction (rat); type: in vitro ADME; settings: rat liver S9 fraction 1 mg/mL
[4] = In vitro bioconversion study, liver S9 fraction (mini-pig); type: in vitro ADME; settings: mini-pig liver S9 fraction 1 mg/mL
[5] = In vitro bioconversion study, liver S9 fraction (human); type: in vitro ADME; settings: human liver S9 fraction 1 mg/mL
[6] = In vitro bioconversion study, kidney S9 fraction (rat); type: in vitro ADME; settings: rat kidney S9 fraction 1 mg/mL
[7] = In vitro bioconversion study, kidney S9 fraction (human); type: in vitro ADME; settings: human kidney S9 fraction 1 mg/mL
[8] = type: in vivo, rats; settings: rat, 4:1 combination, SC bolus 60/14 mg/kg then SC infusion 300/71 mg/kg
Experimental: After 1.5 hours, the combination was dosed again via continuous infusion at a dose of 300/71 mg/kg over next 14.5 hours. Blood samples were collected at 0, 0.25, 1, 6, 16, and 24 hours post dose. […] FIG. 7 provides a time-concentration profile for L-dopa and L-dopa 4′-monophosphate blood levels after administration of the combination of 4′-monophosphate prodrugs at a 4:1 ratio. […] Steady state concentration of ˜1 μg/mL was maintained over the infusion period for carbidopa. […] FIG. 9 provides a time-concentration profile for carbidopa and carbidopa 4′-monophosphate blood levels after administration of the combination of 4′-monophosphate prodrugs at a 4:1 ratio.

[9] = Human prediction of steady state exposures and phosphorus daily load
[10] = mini-pig, 15:1 combination 48/3.2 mg/kg

Row | solubility compared to L-dopa and carbidopa ([2]; FIG. 1, pH of 7.4) | solubility ([2]; water, can reach as high as, read-out: aqueous solubility) [mg/mL] | Exposure of the remaining L-dopa 4′-monophosphate, % of levodopa [8] [%] | Css of levodopa ([9]; human, one 20-mL vial of dose solution per day delivering >6000 mg per day, assuming linear human pharmacokinetics) [ng/mL] | SC F Value ([9]; projected human bioavailability after subcutaneous dosing) | Bioconversion ratio Value ([9]; projected human, prodrug to levodopa or carbidopa, mean bioconversion ratios observed in preclinical animals) | Exposure of the remaining L-dopa 4′-monophosphate, % of the levodopa exposure [10] [%] | Compound | stability and L-dopa or carbidopa formation [1] | stability and L-dopa or carbidopa formation [3] | stability and L-dopa or carbidopa formation [4] | stability and L-dopa or carbidopa formation [5] | stability and L-dopa or carbidopa formation [6] | stability and L-dopa or carbidopa formation [7]
1 |  |  |  |  |  |  |  | N[C@@H](Cc1ccc(O)c(OP(=O)(O)O)c1)C(=O)O [L-dopa 3′-phosphate] | stable without formation of L-dopa or carbidopa observed |  |  |  |  | 
2 | increased solubility | > 300 | ~22 | > 5000 | 0.75 | 0.9 | ~10 | N[C@@H](Cc1ccc(OP(=O)(O)O)c(O)c1)C(=O)O [L-dopa 4′-phosphate, (S)-2-amino-3-(3-hydroxy-4-(phosphonooxy)phenyl)propanoic acid] |  | stable without formation of L-dopa or carbidopa observed | stable without formation of L-dopa or carbidopa observed | stable without formation of L-dopa or carbidopa observed | stable without formation of L-dopa or carbidopa observed | stable without formation of L-dopa or carbidopa observed
